Measurements as given in US20120178908A1 (Novo Nordisk, published 2012).

T1: TLT-1 18-188 relipidated in 20:80 PS:PC vesicles (human, UniProt Q86YW5 18-188)
T1 sequence: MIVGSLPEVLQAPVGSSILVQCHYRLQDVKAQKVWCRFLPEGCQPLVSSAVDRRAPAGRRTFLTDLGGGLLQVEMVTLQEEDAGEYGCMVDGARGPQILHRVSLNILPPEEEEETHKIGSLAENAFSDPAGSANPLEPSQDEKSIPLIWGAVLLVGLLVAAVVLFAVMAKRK

T2: TLT-1 receptor on the surface of activated human platelets (human, UniProt Q86YW5 16-311)
T2 sequence: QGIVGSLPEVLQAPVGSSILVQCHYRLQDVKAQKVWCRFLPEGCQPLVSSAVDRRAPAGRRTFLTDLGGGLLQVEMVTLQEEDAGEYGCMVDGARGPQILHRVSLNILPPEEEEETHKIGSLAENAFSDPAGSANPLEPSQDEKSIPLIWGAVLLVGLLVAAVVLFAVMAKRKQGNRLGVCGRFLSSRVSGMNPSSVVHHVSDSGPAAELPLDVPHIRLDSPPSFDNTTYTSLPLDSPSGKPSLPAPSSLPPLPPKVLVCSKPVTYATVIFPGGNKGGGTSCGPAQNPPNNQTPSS


Legend:
[1] = target: T1, TLT-1 18-188 relipidated in 20:80 PS:PC …; test: cell-based or functional assay
[2] = target: T2, TLT-1 receptor on the surface of …; test: cell-based or functional assay

| FVII-mediated FXa generation % Activity lipidated TLT-1 [1] [%] | FVIIa-mediated FXa generation % Activity lipidated TLT-1 [1] [%] | FVII-mediated FXa generation % Activity activated plts (n 1) [2] [%] | FVIIa-mediated FXa generation % Activity activated plts (n 1) [2] [%] | Binder |
| --- | --- | --- | --- | --- |
| 68 | 93 | 25 | 23 | mAb 0012-(HC-L7-TF)2;LC2 (other) heavy chain-linker-TF: EVKLLESGGGLVQPGGSLKLSCAASGFDFSRYWMTWVRQAPGKGLEWIGEINPDSSTINYTPSLKDKFIISRDNAKNTLYLQMSEVRSEDTALYYCASGVFTSWGQGTLVTVSAASTKGPSVFPLAPCSRSTSESTAALGCLVKDYFPEPVTVSWNSGALTSGVHTFPAVLQSSGLYSLSSVVTVPSSSLGTKTYTCNVDHKPSNTKVDKRV[human IgG4 Fc with S228P (EU numbers) omitted]GGGGSGGGGSGGGGSGSGGGGSGGGGSGGGGSSGTTNTVAAYNLTWKSTNFKTILEWEPKPVNQVYTVQISTKSGDWKSKCFYTTDTECDLTDEIVKDVKQTYLARVFSYPAGNVESTGSAGEPLYENSPEFTPYLETNLGQPTIQSFEQVGTKVNVTVEDERTLVRRNNTFLSLRDVFGKDLIYTLYYWKSSSSGKKTAKTNTNEFLIDVDKGENYCFSVQAVIPSRTVNRKSTDSPVECMGQEKGEFRE light chain: DVVMTQTPLSLPVSLGDQASISCRSSQSLVHRNGNTYFHWCLQKPGQSPKLLIYKVSNRFSGVPDRFSGSGSGTDFTLKISRVEAEDLGVYFCSQSTHVPYTFGGGTKLEIKRTVAAPSVFIFPPSDEQLKSGTASVVCLLNNFYPREAKVQWKVDNALQSGNSQESVTEQDSKDSTYSLSSTLTLSKADYEKHKVYACEVTHQGLSSPVTKSFNRGEC |
| 64 | 88 | 23 | 23 | mAb 0012-(HC-L9-TF)2;LC2 (other) heavy chain-linker-TF: EVKLLESGGGLVQPGGSLKLSCAASGFDFSRYWMTWVRQAPGKGLEWIGEINPDSSTINYTPSLKDKFIISRDNAKNTLYLQMSEVRSEDTALYYCASGVFTSWGQGTLVTVSAASTKGPSVFPLAPCSRSTSESTAALGCLVKDYFPEPVTVSWNSGALTSGVHTFPAVLQSSGLYSLSSVVTVPSSSLGTKTYTCNVDHKPSNTKVDKRV[human IgG4 Fc with S228P (EU numbers) omitted]GGGGSGGGGSGGGGSGGGGSGGGGSGSGGGGSGGGGSGGGGSSGTTNTVAAYNLTWKSTNFKTILEWEPKPVNQVYTVQISTKSGDWKSKCFYTTDTECDLTDEIVKDVKQTYLARVFSYPAGNVESTGSAGEPLYENSPEFTPYLETNLGQPTIQSFEQVGTKVNVTVEDERTLVRRNNTFLSLRDVFGKDLIYTLYYWKSSSSGKKTAKTNTNEFLIDVDKGENYCFSVQAVIPSRTVNRKSTDSPVECMGQEKGEFRE light chain: DVVMTQTPLSLPVSLGDQASISCRSSQSLVHRNGNTYFHWCLQKPGQSPKLLIYKVSNRFSGVPDRFSGSGSGTDFTLKISRVEAEDLGVYFCSQSTHVPYTFGGGTKLEIKRTVAAPSVFIFPPSDEQLKSGTASVVCLLNNFYPREAKVQWKVDNALQSGNSQESVTEQDSKDSTYSLSSTLTLSKADYEKHKVYACEVTHQGLSSPVTKSFNRGEC |
| 20 | 52 | 6 | 15 | mAb 0012-(LC-L0-TF)2;HC2 (other) light chain-TF, no linker: DVVMTQTPLSLPVSLGDQASISCRSSQSLVHRNGNTYFHWCLQKPGQSPKLLIYKVSNRFSGVPDRFSGSGSGTDFTLKISRVEAEDLGVYFCSQSTHVPYTFGGGTKLEIKRTVAAPSVFIFPPSDEQLKSGTASVVCLLNNFYPREAKVQWKVDNALQSGNSQESVTEQDSKDSTYSLSSTLTLSKADYEKHKVYACEVTHQGLSSPVTKSFNRGECSGTTNTVAAYNLTWKSTNFKTILEWEPKPVNQVYTVQISTKSGDWKSKCFYTTDTECDLTDEIVKDVKQTYLARVFSYPAGNVESTGSAGEPLYENSPEFTPYLETNLGQPTIQSFEQVGTKVNVTVEDERTLVRRNNTFLSLRDVFGKDLIYTLYYWKSSSSGKKTAKTNTNEFLIDVDKGENYCFSVQAVIPSRTVNRKSTDSPVECMGQEKGEFRE heavy chain: EVKLLESGGGLVQPGGSLKLSCAASGFDFSRYWMTWVRQAPGKGLEWIGEINPDSSTINYTPSLKDKFIISRDNAKNTLYLQMSEVRSEDTALYYCASGVFTSWGQGTLVTVSAASTKGPSVFPLAPCSRSTSESTAALGCLVKDYFPEPVTVSWNSGALTSGVHTFPAVLQSSGLYSLSSVVTVPSSSLGTKTYTCNVDHKPSNTKVDKRV[human IgG4 Fc with S228P (EU numbers) omitted] |
| 45 | 80 | 22 | 23 | mAb 0012-(LC-L2-TF)2;HC2 (other) light chain-linker-TF: DVVMTQTPLSLPVSLGDQASISCRSSQSLVHRNGNTYFHWCLQKPGQSPKLLIYKVSNRFSGVPDRFSGSGSGTDFTLKISRVEAEDLGVYFCSQSTHVPYTFGGGTKLEIKRTVAAPSVFIFPPSDEQLKSGTASVVCLLNNFYPREAKVQWKVDNALQSGNSQESVTEQDSKDSTYSLSSTLTLSKADYEKHKVYACEVTHQGLSSPVTKSFNRGECGSGGGGSSGTTNTVAAYNLTWKSTNFKTILEWEPKPVNQVYTVQISTKSGDWKSKCFYTTDTECDLTDEIVKDVKQTYLARVFSYPAGNVESTGSAGEPLYENSPEFTPYLETNLGQPTIQSFEQVGTKVNVTVEDERTLVRRNNTFLSLRDVFGKDLIYTLYYWKSSSSGKKTAKTNTNEFLIDVDKGENYCFSVQAVIPSRTVNRKSTDSPVECMGQEKGEFRE heavy chain: EVKLLESGGGLVQPGGSLKLSCAASGFDFSRYWMTWVRQAPGKGLEWIGEINPDSSTINYTPSLKDKFIISRDNAKNTLYLQMSEVRSEDTALYYCASGVFTSWGQGTLVTVSAASTKGPSVFPLAPCSRSTSESTAALGCLVKDYFPEPVTVSWNSGALTSGVHTFPAVLQSSGLYSLSSVVTVPSSSLGTKTYTCNVDHKPSNTKVDKRV[human IgG4 Fc with S228P (EU numbers) omitted] |
| 32 | 66 | 13 | 18 | mAb 0012-(LC-L1-TF)2;HC2 (other) light chain-linker-TF: DVVMTQTPLSLPVSLGDQASISCRSSQSLVHRNGNTYFHWCLQKPGQSPKLLIYKVSNRFSGVPDRFSGSGSGTDFTLKISRVEAEDLGVYFCSQSTHVPYTFGGGTKLEIKRTVAAPSVFIFPPSDEQLKSGTASVVCLLNNFYPREAKVQWKVDNALQSGNSQESVTEQDSKDSTYSLSSTLTLSKADYEKHKVYACEVTHQGLSSPVTKSFNRGECGSSGTTNTVAAYNLTWKSTNFKTILEWEPKPVNQVYTVQISTKSGDWKSKCFYTTDTECDLTDEIVKDVKQTYLARVFSYPAGNVESTGSAGEPLYENSPEFTPYLETNLGQPTIQSFEQVGTKVNVTVEDERTLVRRNNTFLSLRDVFGKDLIYTLYYWKSSSSGKKTAKTNTNEFLIDVDKGENYCFSVQAVIPSRTVNRKSTDSPVECMGQEKGEFRE heavy chain: EVKLLESGGGLVQPGGSLKLSCAASGFDFSRYWMTWVRQAPGKGLEWIGEINPDSSTINYTPSLKDKFIISRDNAKNTLYLQMSEVRSEDTALYYCASGVFTSWGQGTLVTVSAASTKGPSVFPLAPCSRSTSESTAALGCLVKDYFPEPVTVSWNSGALTSGVHTFPAVLQSSGLYSLSSVVTVPSSSLGTKTYTCNVDHKPSNTKVDKRV[human IgG4 Fc with S228P (EU numbers) omitted] |
